# Experimental data taken from PubChem BioAssay (Tox21).
# The shares of active, inactive and inconclusive entries below differ from those in the screen. No potency is given beside an inconclusive call; the fits are too rough. Calls of active or inactive are those of the source. Calls follow the shape of the dose curve; as a rule, active = well fitted cell-killing curve with a large enough effect in the repeat runs; inconclusive = weak or mixed curves, or effect the other way; inactive = no such curve, though single readings can be large or run the other way. Bridge positions count the residues as written; N and C are the ends. Square brackets hold non-standard residues; d marks the D form. Peptide text beside a SMILES is read from it. * marks the point of attachment. Dab(CH2SO3H) = N[C@@H](CCNCS(=O)(=O)O)C(=O)O; X2 = CC[C@@H](C)CCCCC(=O)*; Dab = NCC[C@H](N)C(=O)O
# Test: qHTS assay for identifying genotoxic compounds that show differential cytotoxicity against isogenic chicken DT40 cell lines with known DNA damage response pathways - wild type cell line (AID 743012); also: nearly all actives have a fitted effect of over 60% in size
# Conditions: DT40 wild type chicken cells viability, CellTiter-Glo, 40 h; series mostly up to 68.4 µM
# In short: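 First, wild type DT40 cells were plated at 300 per well and equilibrated about 0.5 h at 37 C/5% CO2. Next, compounds in DMSO were added and exposure lasted 40 h. Finally, CellTiter-Glo was added for 30 min at room temperature and luminescence recorded.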
# Potency is read from the fitted curve at half-maximal effect; tags tell the direction and shape of the fitted curve.
row,SMILES,Potency
1,CCC(Cc1c(I)cc(I)c(O)c1I)C(=O)O (configuration not stated),inactive
2,CC(=O)NC[C@H]1CN(c2ccc(N3CCOCC3)c(F)c2)C(=O)O1,inconclusive [cytotoxic]
3,N[C@@H](Cc1ccc(O)c(O)c1)C(=O)O,"inconclusive [cytotoxic, single point]"
4,Oc1ccc(Cl)c2c1CCC2,inactive
5,O=C(O)c1cc(=O)c2c3nc4ccccc4oc-3cc(=O)c2[nH]1,"inconclusive [cytotoxic, single point]"
6,CCOC(=O)[C@H](CS)NCCN[C@@H](CS)C(=O)OCC,"inconclusive [cytotoxic, single point]"
7,Cc1cccc(C)c1N(CCCc1cccnc1)C(=O)C(C)N (configuration not stated),"inconclusive [cytotoxic, partial curve]"
8,O=c1oc2cc(O)ccc2s1,inactive
9,CCOC(=O)c1cc(-c2ccccc2)nc2ccc(C)cc12,"inconclusive [cytotoxic, single point]"
10,O.O=C([O-])CC([S-])C(=O)[O-].[Au+].[Na+].[Na+] (configuration not stated),inactive
11,CCC(O)c1ccccc1 (configuration not stated),"inconclusive [rising, partial curve, poor fit]"
12,CCN(CC)CCOC(=O)c1cccnc1,"inconclusive [rising, partial curve, poor fit]"

# Test: qHTS assay for identifying genotoxic compounds that show differential cytotoxicity against isogenic chicken DT40 cell lines with known DNA damage response pathways - Rev3 mutant cell line (AID 743014); also: nearly all actives have a fitted effect of over 55% in size
# Conditions: chicken DT40 Rev3-/- viability, CellTiter-Glo, 40 h; series mostly up to 68.4 µM
row,SMILES,Potency
1,CO/N=C(\C(=O)N[C@@H]1C(=O)N2C(C(=O)O)=C(CSc3nc(C)c(CC(=O)O)s3)CS[C@H]12)c1csc(N)n1,"inconclusive [rising, partial curve, poor fit]"
2,CC(/C=C/C=C(\C)C(=O)O[C@@H]1O[C@H](CO[C@@H]2O[C@H](CO)[C@@H](O)[C@H](O)[C@H]2O)[C@@H](O)[C@H](O)[C@H]1O)=C\C=C\C=C(C)\C=C\C=C(/C)C(=O)O[C@@H]1O[C@H](CO[C@@H]2O[C@H](CO)[C@@H](O)[C@H](O)[C@H]2O)[C@@H](O)[C@H](O)[C@H]1O,"inconclusive [rising, partial curve, poor fit]"
3,CC#CCC(C)[C@H](O)/C=C/[C@@H]1[C@H]2c3cccc(CCCC(=O)O)c3O[C@H]2C[C@H]1O (some centres not stated),inactive
4,CCC(=O)OC(OP(=O)(CCCCc1ccccc1)CC(=O)N1C[C@H](C2CCCCC2)C[C@H]1C(=O)O)C(C)C (some centres not stated),"inconclusive [rising, partial curve, poor fit]"
5,COc1cc(NCCCC(C)N)c2ncccc2c1 (configuration not stated),"inconclusive [cytotoxic, full curve]"
6,O=[N+]([O-])O[C@@H]1CO[C@H]2[C@@H]1OC[C@@H]2O,"inconclusive [rising, partial curve, poor fit]"
7,CN(CC(=O)N1CCOCC1)Cc1c(Cl)cccc1NC(=O)c1ccccc1,inconclusive [cytotoxic]
8,O=C1CCC(=O)N1CO,"inconclusive [rising, partial curve, poor fit]"
9,CC[C@@H](C)CCCCC(=O)N[C@@H](CCNCS(=O)(=O)O)C(=O)N[C@H](C(=O)N[C@@H](CCNCS(=O)(=O)O)C(=O)N[C@H]1CCNC(=O)[C@H]([C@@H](C)O)NC(=O)[C@H](CCNCS(=O)(=O)O)NC(=O)[C@H](CCNCS(=O)(=O)O)NC(=O)[C@H](CC(C)C)NC(=O)[C@@H](CC(C)C)NC(=O)[C@H](CCNCS(=O)(=O)O)NC1=O)[C@@H](C)O (X2-[Dab(CH2SO3H)]T[Dab(CH2SO3H)][Dab][Dab(CH2SO3H)][dL]L[Dab(CH2SO3H)][Dab(CH2SO3H)]T; lactam 4-C),active: 23.7 µM
10,CC(=O)Oc1cc(C(F)(F)F)ccc1C(=O)O,"inconclusive [rising, partial curve, poor fit]"
11,Cc1cn([C@H]2C[C@H](O)[C@@H](CO)O2)c(=O)[nH]c1=O,"inconclusive [rising, partial curve, poor fit]"
12,Cc1cc(-n2c(=O)[nH]c(=O)n(C)c2=O)ccc1Oc1ccc(S(=O)(=O)C(F)(F)F)cc1,active: 26.6 µM
13,C[C@H]1C[C@@H]2[C@H]([C@@H](O)C[C@@]3(C)[C@H]2CC[C@]3(O)C(=O)COC(=O)CCC(=O)O)[C@@]2(C)C=CC(=O)C=C12,"inconclusive [cytotoxic, partial curve]"
14,Nc1c(Br)cc(Br)cc1CNC1CCC(O)CC1 (configuration not stated),"inconclusive [cytotoxic, full curve]"
15,CCOC(=O)c1cc(-c2ccccc2)nc2ccc(C)cc12,"inconclusive [cytotoxic, single point]"
16,C=CC[N@@+]12CC[C@@]34c5ccccc5N5/C=C6/[C@H]7C[C@H]8[C@@]9(CC[N@@+]8(CC=C)C/C7=C/CO)c7ccccc7N(/C=C(/[C@@H](C[C@@H]31)/C(=C\CO)C2)[C@H]54)[C@@H]69,inactive
17,CC/C=C\C/C=C\C/C=C\C/C=C\C/C=C\C/C=C\CCC(=O)O,"inconclusive [cytotoxic, single point]"
18,O=C(O)CCC/C=C\C[C@@H]1[C@@H](/C=C/[C@@H](O)COc2cccc(C(F)(F)F)c2)[C@H](O)C[C@@H]1O,inactive
19,CCCCC(=O)O[C@H]1CC[C@H]2[C@@H]3CCc4cc(O)ccc4[C@H]3CC[C@]12C,"inconclusive [cytotoxic, full curve]"
20,CCN(CC)CCOC(=O)c1cccnc1,"inconclusive [rising, partial curve, poor fit]"
